Laboratory results from article PMC7506137, “Selective Phosphodiesterase 1 Inhibitor BTTQ Reduces Blood Pressure in Spontaneously Hypertensive and Dahl Salt Sensitive Rats: Role of Peripheral Vasodilation” (Frontiers in Physiology, 2020).
Several values for one entry are separate records, joined by “and”; a condition that tells them apart may be missing. Identical values can stand only once. This continues a long series; more values of the same kind are listed elsewhere.

Experiment: Plasma exposure (dried blood spot) after single oral dose
Type: in vivo
Settings: rat; for Unbound Concentration, individual animals: FU 0.053; for Concentration, individual animals: dried blood spot
Procedure: Male Sprague Dawley rats at 6 to 7 weeks were dosed orally by p.o. gavage with different doses of BTTQ formulated in 1% hydroxyethlycellulose (Dow Corning, Midland, MI, United States) (w/v), 0.25% polysorbate 80 (Sigma-Aldrich, St. Louis, MO, United States) (v/v), and 0.05% antifoam (v/v; Dow Corning, Midland, MI, United States) in purified water. Following dosing, ear temperature was measured by using a k-type thermocouple probe digital thermometer (Cole Parmer) every hour for 6 h and then at 24 h. Blood samples for plasma exposure measurement were obtained at the same time. Blood was collected via a tail snip directly into a 20-μL EDTA-coated capillary and immediately spotted onto a Whatman DMPK-C DBS card (GE Healthcare Bio-Sciences). Tail snips were performed by removing approximately 1 mm of the tail by using a scalpel. Blood flow was initiated by gentle squeezing of the tail. No analgesia or anesthesia was used during blood collections. A single sample and spot were collected per time point. The DBS cards were allowed to dry for approximately 2 h at room temperature, after which the cards were placed in a zip-top bag, stored, and shipped at ambient temperature.

[1] = oral 0.03 mg/kg, 1 h, 0.03 mg/kg
[2] = oral 0.03 mg/kg, 2 h, 0.03 mg/kg
[3] = oral 0.03 mg/kg, 3 h, 0.03 mg/kg
[4] = oral 0.03 mg/kg, 4 h, 0.03 mg/kg

O=c1c2nnc(C3(C4CC4)CC3)n2c2c(n1CC1CC1)CCCC2 [BTTQ, 1-[1,1′-bi(cyclopropyl)-1-yl]-5-(cyclopropylmethyl)-6,7,8,9-tetrahydro[1,2,4]triazolo[4,3-A]quinoxaline-4(5H)-one]
Unbound Concentration, individual animals [1]: 1.57 nM and 3.56 nM and 2.89 nM and 2.26 nM and 2.32 nM
Concentration, individual animals [1]: 29.6 nM and 67.1 nM and 54.5 nM and 42.7 nM and 43.7 nM
Unbound Concentration, individual animals [2]: 3.1 nM and 3.05 nM and 2.63 nM and 2.35 nM
Concentration, individual animals [2]: 58.4 nM and 57.5 nM and 49.7 nM and 44.4 nM
Unbound Concentration, individual animals [3]: 2.34 nM and 2.11 nM and 2.53 nM and 2.14 nM
Concentration, individual animals [3]: 44.1 nM and 39.8 nM and 47.7 nM and 40.4 nM
Unbound Concentration, individual animals [4]: 1.87 nM and 2.05 nM and 1.74 nM (2×)
Concentration, individual animals [4]: 35.2 nM and 38.7 nM and 32.8 nM and 32.9 nM
Unbound Concentration, individual animals (oral 0.3 mg/kg, 5 h, 0.3 mg/kg): 9.96 nM and 8.69 nM
Concentration, individual animals (oral 0.3 mg/kg, 5 h, 0.3 mg/kg): 151 nM (2×) and 188 nM and 164 nM
Unbound Concentration, individual animals (oral 0.3 mg/kg, 6 h, 0.3 mg/kg): 7.26 nM and 5.26 nM and 6.94 nM (2×)
Concentration, individual animals (oral 0.3 mg/kg, 6 h, 0.3 mg/kg): 137 nM and 99.3 nM and 131 nM (2×)
Unbound Concentration, individual animals (oral 1 mg/kg, 1 h, 1 mg/kg): 74.7 nM and 137 nM and 118 nM and 65.2 nM and 67.8 nM
Concentration, individual animals (oral 1 mg/kg, 1 h, 1 mg/kg): 1410 nM and 2590 nM and 2220 nM and 1230 nM and 1280 nM
Unbound Concentration, individual animals (oral 1 mg/kg, 2 h, 1 mg/kg): 105 nM and 118 nM and 64.7 nM and 62 nM
Concentration, individual animals (oral 1 mg/kg, 2 h, 1 mg/kg): 1980 nM and 2230 nM and 1220 nM and 1170 nM
Unbound Concentration, individual animals (oral 1 mg/kg, 3 h, 1 mg/kg): 75.3 nM and 73.7 nM and 48.9 nM and 48.4 nM
Concentration, individual animals (oral 1 mg/kg, 3 h, 1 mg/kg): 1420 nM and 1390 nM and 923 nM and 914 nM
Unbound Concentration, individual animals (oral 1 mg/kg, 4 h, 1 mg/kg): 67.3 nM and 73.7 nM and 47.9 nM and 49.7 nM
Concentration, individual animals (oral 1 mg/kg, 4 h, 1 mg/kg): 1270 nM and 1390 nM and 903 nM and 937 nM
Unbound Concentration, individual animals (oral 1 mg/kg, 5 h, 1 mg/kg): 63.1 nM and 61.5 nM and 43.6 nM and 38.6 nM
Concentration, individual animals (oral 1 mg/kg, 5 h, 1 mg/kg): 1190 nM and 1160 nM and 822 nM and 728 nM
Unbound Concentration, individual animals (oral 1 mg/kg, 6 h, 1 mg/kg): 39.6 nM and 38.6 nM and 39.8 nM and 47.4 nM
Concentration, individual animals (oral 1 mg/kg, 6 h, 1 mg/kg): 747 nM and 728 nM and 750 nM and 894 nM
Unbound Concentration, individual animals (oral 1 mg/kg, 24 h, 1 mg/kg): 0.933 nM and 1.39 nM and 1.9 nM and 3.3 nM and 3.12 nM
Concentration, individual animals (oral 1 mg/kg, 24 h, 1 mg/kg): 17.6 nM and 26.2 nM and 35.9 nM and 62.3 nM and 58.8 nM
Unbound Concentration, individual animals (oral 3 mg/kg, 1 h, 3 mg/kg): 190 nM and 257 nM and 218 nM and 178 nM
Concentration, individual animals (oral 3 mg/kg, 1 h, 3 mg/kg): 3580 nM and 4850 nM and 4110 nM and 3350 nM
Unbound Concentration, individual animals (oral 3 mg/kg, 2 h, 3 mg/kg): 151 nM and 173 nM and 298 nM and 189 nM
Concentration, individual animals (oral 3 mg/kg, 2 h, 3 mg/kg): 2840 nM and 3270 nM and 5630 nM and 3560 nM
Unbound Concentration, individual animals (oral 3 mg/kg, 3 h, 3 mg/kg): 125 nM and 160 nM and 208 nM and 178 nM
Concentration, individual animals (oral 3 mg/kg, 3 h, 3 mg/kg): 2350 nM and 3020 nM and 3920 nM and 3360 nM
Unbound Concentration, individual animals (oral 3 mg/kg, 4 h, 3 mg/kg): 101 nM and 135 nM and 189 nM and 158 nM
Concentration, individual animals (oral 3 mg/kg, 4 h, 3 mg/kg): 1910 nM and 2540 nM and 3570 nM and 2990 nM
Unbound Concentration, individual animals (oral 3 mg/kg, 5 h, 3 mg/kg): 92.8 nM and 105 nM and 125 nM and 110 nM
Concentration, individual animals (oral 3 mg/kg, 5 h, 3 mg/kg): 1750 nM and 1990 nM and 2350 nM and 2080 nM
Unbound Concentration, individual animals (oral 3 mg/kg, 6 h, 3 mg/kg): 68.4 nM and 91.2 nM and 93.8 nM and 116 nM
Concentration, individual animals (oral 3 mg/kg, 6 h, 3 mg/kg): 1290 nM and 1720 nM and 1770 nM and 2190 nM
Unbound Concentration, individual animals (oral 3 mg/kg, 24 h, 3 mg/kg): 5.41 nM and 1.26 nM and 16.1 nM and 1.52 nM and 0.716 nM
Concentration, individual animals (oral 3 mg/kg, 24 h, 3 mg/kg): 102 nM and 23.7 nM and 303 nM and 28.6 nM and 13.5 nM
